Our source for the binding values is article PMC11347130.

By UniProt entry, the sequences of proteins in these tests, tags left out. Where a name states a change or a piece, a line headed by the entry shows the natural chain unless it says otherwise. Residues count along the entry.
UniProt Q99700: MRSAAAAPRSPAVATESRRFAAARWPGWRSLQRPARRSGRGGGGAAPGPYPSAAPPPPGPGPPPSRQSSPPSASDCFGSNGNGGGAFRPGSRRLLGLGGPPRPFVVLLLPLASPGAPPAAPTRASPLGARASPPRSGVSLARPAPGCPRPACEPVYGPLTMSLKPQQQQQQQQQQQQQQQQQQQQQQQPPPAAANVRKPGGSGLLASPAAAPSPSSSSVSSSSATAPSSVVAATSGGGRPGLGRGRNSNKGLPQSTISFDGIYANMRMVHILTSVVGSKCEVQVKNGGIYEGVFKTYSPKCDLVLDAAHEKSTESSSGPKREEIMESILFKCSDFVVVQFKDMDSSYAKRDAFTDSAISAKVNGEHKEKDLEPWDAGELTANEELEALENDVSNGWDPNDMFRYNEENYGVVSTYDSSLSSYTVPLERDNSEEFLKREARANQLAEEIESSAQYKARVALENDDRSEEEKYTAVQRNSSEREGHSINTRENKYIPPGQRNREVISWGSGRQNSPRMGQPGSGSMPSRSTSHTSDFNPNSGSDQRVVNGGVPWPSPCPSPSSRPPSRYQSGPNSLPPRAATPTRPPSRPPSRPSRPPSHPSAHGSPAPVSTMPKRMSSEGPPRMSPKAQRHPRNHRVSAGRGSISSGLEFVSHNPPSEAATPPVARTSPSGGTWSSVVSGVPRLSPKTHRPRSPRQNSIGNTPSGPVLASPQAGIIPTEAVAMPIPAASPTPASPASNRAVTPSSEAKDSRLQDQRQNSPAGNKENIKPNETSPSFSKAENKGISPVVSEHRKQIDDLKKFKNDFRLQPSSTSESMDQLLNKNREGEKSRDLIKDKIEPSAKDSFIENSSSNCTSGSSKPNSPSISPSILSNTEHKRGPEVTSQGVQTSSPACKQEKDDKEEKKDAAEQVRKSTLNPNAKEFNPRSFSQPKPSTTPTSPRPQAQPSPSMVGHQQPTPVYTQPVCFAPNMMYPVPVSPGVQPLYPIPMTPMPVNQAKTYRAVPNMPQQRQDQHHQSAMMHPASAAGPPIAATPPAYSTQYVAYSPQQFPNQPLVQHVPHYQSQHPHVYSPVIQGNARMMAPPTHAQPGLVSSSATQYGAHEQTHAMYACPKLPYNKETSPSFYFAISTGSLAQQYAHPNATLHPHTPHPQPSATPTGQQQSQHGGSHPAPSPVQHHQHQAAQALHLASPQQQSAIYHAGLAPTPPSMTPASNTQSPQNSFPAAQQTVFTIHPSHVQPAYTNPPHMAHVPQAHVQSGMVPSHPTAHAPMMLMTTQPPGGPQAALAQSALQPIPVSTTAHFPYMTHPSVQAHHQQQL
5 × Flag-GST-ataxin-2 (906–1313): residues 906-1313 of Q99700
5 × Flag-GST-ataxin-2 (906–1095): residues 906-1095 of Q99700
5 × Flag-GST-ataxin-2 (1096–1313): residues 1096-1313 of Q99700

No constants are given. Whether binding was seen depends on the method and setting. In cells and extracts the contact can be indirect. Some entries that bind do so weakly or less than the wild type.

Holding throughout (test): co-IP; lysate of HeLa cells co-transfected with 5×Myc-ataxin-2 and a 5×Flag-tagged bait, precipitated with anti-Flag-agarose 1 h at 4°C; buffer A: 50 mM Tris-HCl pH 7.5, 50 mM NaCl, 0.1% NP-40, 1 mM DTT, 1 mM EDTA, 10 ug/ml RNase A; western blot with anti-Myc
In assay [1] the target is 5 × Flag-ataxin-2 (906–1313) (human) (UniProt Q99700).
Assay [2] concerns the target 5 × Flag-GST-ataxin-2 (906–1095) (human) (UniProt Q99700).
The target of assay [3] is ataxin-2 (5 × Flag-ataxin-2 and 5 × Myc-ataxin-2) (human) (UniProt Q99700).
Assay [4] concerns the target 5 × Flag-GST-ataxin-2 (906–1313) (human) (UniProt Q99700).
The target of assay [5] is 5 × Flag-GST-ataxin-2 (1096–1313) (human) (UniProt Q99700).

Turning to “ataxin-2 (5 × Flag-ataxin-2 and 5 × Myc-ataxin-2) (from UniProt Q99700 1-1313)”, the binding result is given as “binds” in assay [1]; “no binding” in assay [2]; “binds” in assay [3]; “binds” in assay [4]; “binds” in assay [5].
